# The list shows a part of the results.
# B1: ACA (Amaranthus caudatus) (protein)
# chain: MAGLPVIMCLKSNNNQKYLRYQSDNIQQYGLLQFSADKILDPLAQFEVEPSKTYDGLVHIKSRYTNKYLVRWSPNHYWITASANEPDENKSNWACTLFKPLYVEEGNMKKVRLLHVQLGHYTQNYTVGGSFVSYLFAESSQIDTGSKDVFHVIDWKSIFQFPKRYVTFKGNNGKYLGVITINQLPCLQFGYDNLNDPKVAHEMFVTSNGTICIKSTYMNKFWRLSTDDWILVDGNDPRETNEAAALFRSDVHDFNVISLLNMQKTWFIKRFTSGKPGFINCMNAATQNVDETAILEIIELGSNN
# How the values were obtained:
# Test in all cases: glycan array binding signal (z-score within array); higher = stronger binding
# Conditions in all cases: glycan notation: IUPAC condensed, linker removed
# [1] = biological target: Neu5Ac(a2-3)Gal(b1-4)GlcNAc
# How it was run: (§1)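 The binding signal is a Z-score computed within each array and averaged over linkers. Arrays of the same protein sequence at different concentrations or buffers were also averaged together. Data originate from 3228 arrays in the Consortium for Functional Glycomics database, kept only where the protein sequence was available.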
# [2] = biological target: Neu5Ac(a2-3)Gal(b1-4)GlcNAc(b1-2)Man
# How it was run: as §1
# [3] = biological target: Neu5Ac(a2-3)Gal(b1-4)GlcNAc(b1-2)Man(a1-3)[GlcNAc(b1-4)][Neu5Ac(a2-3)Gal(b1-4)GlcNAc(b1-2)Man(a1-6)]Man(b1-4)GlcNAc(b1-4)GlcNAc
# How it was run: as §1
# [4] = biological target: Neu5Ac(a2-3)Gal(b1-4)GlcNAc(b1-2)Man(a1-3)[Neu5Ac(a2-3)Gal(b1-4)GlcNAc(b1-2)Man(a1-6)]Man(b1-4)GlcNAc(b1-4)GlcNAc
# How it was run: as §1
# [5] = biological target: Neu5Ac(a2-3)Gal(b1-4)GlcNAc(b1-2)Man(a1-3)[Neu5Ac(a2-3)Gal(b1-4)GlcNAc(b1-2)Man(a1-6)]Man(b1-4)GlcNAc(b1-4)[Fuc(a1-6)]GlcNAc
# How it was run: as §1
# [6] = biological target: Neu5Ac(a2-3)Gal(b1-4)GlcNAc(b1-2)Man(a1-3)[Neu5Ac(a2-6)Gal(b1-4)GlcNAc(b1-2)Man(a1-6)]Man(b1-4)GlcNAc(b1-4)GlcNAc
# How it was run: as §1
# [7] = biological target: Neu5Ac(a2-3)Gal(b1-4)GlcNAc(b1-2)[Neu5Ac(a2-3)Gal(b1-4)GlcNAc(b1-4)]Man(a1-3)[GlcNAc(b1-4)][Neu5Ac(a2-3)Gal(b1-4)GlcNAc(b1-2)[Neu5Ac(a2-3)Gal(b1-4)GlcNAc(b1-6)]Man(a1-6)]Man(b1-4)GlcNAc(b1-4)GlcNAc
# How it was run: as §1
# [8] = biological target: Neu5Ac(a2-3)Gal(b1-4)GlcNAc(b1-2)[Neu5Ac(a2-3)Gal(b1-4)GlcNAc(b1-4)]Man(a1-3)[GlcNAc(b1-4)][Neu5Ac(a2-3)Gal(b1-4)GlcNAc(b1-4)Man(a1-6)]Man(b1-4)GlcNAc(b1-4)GlcNAc
# How it was run: as §1
# [9] = biological target: Neu5Ac(a2-3)Gal(b1-4)GlcNAc(b1-2)[Neu5Ac(a2-3)Gal(b1-4)GlcNAc(b1-6)]Man(a1-6)[Neu5Ac(a2-3)Gal(b1-4)GlcNAc(b1-2)Man(a1-3)]Man(b1-4)GlcNAc(b1-4)GlcNAc
# How it was run: as §1
# [10] = biological target: Neu5Ac(a2-3)Gal(b1-4)GlcNAc(b1-2)[Neu5Ac(a2-3)Gal(b1-4)GlcNAc(b1-6)]Man(a1-6)[Neu5Ac(a2-3)Gal(b1-4)GlcNAc(b1-2)Man(a1-3)][GlcNAc(b1-4)]Man(b1-4)GlcNAc(b1-4)GlcNAc
# How it was run: as §1
# [11] = biological target: Neu5Ac(a2-3)Gal(b1-4)GlcNAc(b1-3)Gal
# How it was run: as §1
# [12] = biological target: Neu5Ac(a2-3)Gal(b1-4)GlcNAc(b1-3)Gal(b1-3)GlcNAc
# How it was run: as §1
# [13] = biological target: Neu5Ac(a2-3)Gal(b1-4)GlcNAc(b1-3)Gal(b1-4)GlcNAc
# How it was run: as §1
# [14] = biological target: Neu5Ac(a2-3)Gal(b1-4)GlcNAc(b1-3)Gal(b1-4)GlcNAc(b1-2)Man(a1-3)[Neu5Ac(a2-3)Gal(b1-4)GlcNAc(b1-3)Gal(b1-4)GlcNAc(b1-2)Man(a1-6)]Man(b1-4)GlcNAc(b1-4)GlcNAc
# How it was run: as §1
# [15] = biological target: Neu5Ac(a2-3)Gal(b1-4)GlcNAc(b1-3)Gal(b1-4)GlcNAc(b1-3)Gal(b1-4)GlcNAc
# How it was run: as §1
# [16] = biological target: Neu5Ac(a2-3)Gal(b1-4)GlcNAc(b1-3)Gal(b1-4)GlcNAc(b1-3)Gal(b1-4)GlcNAc(b1-2)Man(a1-3)[Neu5Ac(a2-3)Gal(b1-4)GlcNAc(b1-3)Gal(b1-4)GlcNAc(b1-3)Gal(b1-4)GlcNAc(b1-2)Man(a1-6)]GalNAc
# How it was run: as §1
# [17] = biological target: Neu5Ac(a2-3)Gal(b1-4)GlcNAc(b1-3)Gal(b1-4)GlcNAc(b1-3)GalNAc
# How it was run: as §1
# [18] = biological target: Neu5Ac(a2-3)Gal(b1-4)GlcNAc(b1-3)Gal(b1-4)GlcNAc(b1-3)[Neu5Ac(a2-3)Gal(b1-4)GlcNAc(b1-3)Gal(b1-4)GlcNAc(b1-6)]GalNAc
# How it was run: as §1
# [19] = biological target: Neu5Ac(a2-3)Gal(b1-4)GlcNAc(b1-3)Gal(b1-4)GlcNAc(b1-6)[Gal(b1-3)]GalNAc
# How it was run: as §1
# [20] = biological target: Neu5Ac(a2-3)Gal(b1-4)GlcNAc(b1-3)Gal(b1-4)[Fuc(a1-3)]GlcNAc
# How it was run: as §1
# [21] = biological target: Neu5Ac(a2-3)Gal(b1-4)GlcNAc(b1-3)GalNAc
# How it was run: as §1
# [22] = biological target: Neu5Ac(a2-3)Gal(b1-4)GlcNAc(b1-3)[Neu5Ac(a2-3)Gal(b1-4)GlcNAc(b1-6)]GalNAc
# How it was run: as §1
# [23] = biological target: Neu5Ac(a2-3)Gal(b1-4)GlcNAc(b1-6)GalNAc
# How it was run: as §1
# [24] = biological target: Neu5Ac(a2-3)Gal(b1-4)GlcNAc(b1-6)[Gal(b1-3)]GalNAc
# How it was run: as §1
# [25] = biological target: Neu5Ac(a2-3)Gal(b1-4)GlcNAc(b1-6)[Neu5Ac(a2-3)Gal(b1-3)]GalNAc
# How it was run: as §1
# [26] = biological target: Neu5Ac(a2-3)Gal(b1-4)GlcNAc6S
# How it was run: as §1
# [27] = biological target: Neu5Ac(a2-3)Gal(b1-4)[Fuc(a1-3)]GlcNAc
# How it was run: as §1
# [28] = biological target: Neu5Ac(a2-3)Gal(b1-4)[Fuc(a1-3)]GlcNAc(b1-2)Man
# How it was run: as §1
# [29] = biological target: Neu5Ac(a2-3)Gal(b1-4)[Fuc(a1-3)]GlcNAc(b1-3)Gal
# How it was run: as §1
# [30] = biological target: Neu5Ac(a2-3)Gal(b1-4)[Fuc(a1-3)]GlcNAc(b1-3)Gal(b1-4)GlcNAc
# How it was run: as §1
# [31] = biological target: Neu5Ac(a2-3)Gal(b1-4)[Fuc(a1-3)]GlcNAc(b1-3)Gal(b1-4)[Fuc(a1-3)]GlcNAc(b1-3)Gal(b1-4)[Fuc(a1-3)]GlcNAc
# How it was run: as §1
# [32] = biological target: Neu5Ac(a2-3)Gal(b1-4)[Fuc(a1-3)]GlcNAc(b1-3)GalNAc
# How it was run: as §1
# [33] = biological target: Neu5Ac(a2-3)Gal(b1-4)[Fuc(a1-3)]GlcNAc(b1-6)[Gal(b1-3)]GalNAc
# How it was run: as §1
# [34] = biological target: Neu5Ac(a2-3)Gal(b1-4)[Fuc(a1-3)]GlcNAc(b1-6)[Neu5Ac(a2-3)Gal(b1-3)]GalNAc
# How it was run: as §1
# [35] = biological target: Neu5Ac(a2-3)Gal(b1-4)[Fuc(a1-3)]GlcNAc6S
# How it was run: as §1
# [36] = biological target: Neu5Ac(a2-3)Gal6S(b1-4)GlcNAc
# How it was run: as §1
# [37] = biological target: Neu5Ac(a2-3)Gal6S(b1-4)[Fuc(a1-3)]GlcNAc
# How it was run: as §1
# [38] = biological target: Neu5Ac(a2-3)GalNAc
# How it was run: as §1
binder,measurement,setting,value
B1,glycan array binding signal (z-score),[1],-0.176
same,glycan array binding signal (z-score),[2],0.462
same,glycan array binding signal (z-score),[3],-0.581
same,glycan array binding signal (z-score),[4],-0.59
same,glycan array binding signal (z-score),[5],-0.317
same,glycan array binding signal (z-score),[6],-0.42
same,glycan array binding signal (z-score),[7],-0.519
same,glycan array binding signal (z-score),[8],0.339
same,glycan array binding signal (z-score),[9],0.184
same,glycan array binding signal (z-score),[10],-0.715
same,glycan array binding signal (z-score),[11],-0.792
same,glycan array binding signal (z-score),[12],-0.399
same,glycan array binding signal (z-score),[13],-0.63
same,glycan array binding signal (z-score),[14],3.13
same,glycan array binding signal (z-score),[15],-0.496
same,glycan array binding signal (z-score),[16],9.87
same,glycan array binding signal (z-score),[17],0.033
same,glycan array binding signal (z-score),[18],0.039
same,glycan array binding signal (z-score),[19],1.06
same,glycan array binding signal (z-score),[20],0.092
same,glycan array binding signal (z-score),[21],-0.31
same,glycan array binding signal (z-score),[22],0.132
same,glycan array binding signal (z-score),[23],-0.033
same,glycan array binding signal (z-score),[24],0.029
same,glycan array binding signal (z-score),[25],-0.222
same,glycan array binding signal (z-score),[26],-0.219
same,glycan array binding signal (z-score),[27],-0.577
same,glycan array binding signal (z-score),[28],-0.376
same,glycan array binding signal (z-score),[29],-0.407
same,glycan array binding signal (z-score),[30],-0.139
same,glycan array binding signal (z-score),[31],-0.312
same,glycan array binding signal (z-score),[32],0.449
same,glycan array binding signal (z-score),[33],0.615
same,glycan array binding signal (z-score),[34],-0.001
same,glycan array binding signal (z-score),[35],-0.123
same,glycan array binding signal (z-score),[36],-0.189
same,glycan array binding signal (z-score),[37],-0.502
same,glycan array binding signal (z-score),[38],-0.329

# From the supplement of paper PMC8728848
